Results on one molecule are retold here after patent US20090068110A1, “ANTIBODIES TO INSULIN-LIKE GROWTH FACTOR RECEPTOR” (Genentech, Inc., priority 2006, published 2009).

As a reminder, the IC50 is the concentration at which inhibition is half-maximal.

For assay [1], the target named is T1, human IGF-1R-ECD (Homo sapiens, UniProt P08069).
T1 construct: containing the extracellular domain (ECD, amino acids 1-902) tagged with 10 or 12 histidine residues at the carboxyl terminus; His10 or His12 (C); made in house; host or cells: CHO cells
The experiment in a line: solid phase binding assay.

The target in assay [2] is T1, human IGF-1R-ECD. The experiment in a line: phage-competition ELISA (phage IC50). Conditions: humanized hybridoma-derived clones displayed on phage as monovalent Fab; read-out: binding affinity (phage IC50) against IGF-1R-ECD. As for the experimental part: MAXISORP™ microtiter plates were coated with human IGF-1R-ECD at 5 μg/ml in PBS overnight and then blocked with CASEIN BLOCKER™ reagent (Pierce Biotechnology, Inc.). Phage from culture supernatants were incubated with serially diluted IGF-1R-ECD in PBS with 0.05% TWEEN 20™ surfactant (PBST) containing 1% bovine serum albumin (BSA) in a tissue-culture microtiter plate for 1 hour, after which 80 μl of the mixture was transferred to the target-coated wells for 15 minutes to capture unbound phage. The plate was washed with PBST, and HRP-conjugated anti-M13 (Amersham Pharmacia Biotech) was added (1:5000 in PBST containing 1% BSA) for 40 minutes. The plate was washed with PBST and developed by adding tetramethylbenzidine (TMB) substrate (Kirkegaard and Perry Laboratories, Gaithersburg, Md.). The absorbance at 450 nm was plotted as a function of target concentration in solution to determine an IC50. […] For the humanized hybridoma-derived clones, 2B4, 9F2, and 10H5, phage-Fab was used.
This assay was conducted as described in Section 1-II-A-(4) of this Example. For the YW95-phage-derived clones from the VH/VL phage library, phage-Fab-Zip was used.

B1: h10H5.vX: humanized anti-IGF-1R antibody, direct HVR graft of murine 10H5; heavy chain SEQ ID NO:90, light chain SEQ ID NO:91 (protein)
chain 1: MGWSCIILFLVATATGVHSEVQLVESGGGLVQPGGSLRLSCAASGYTFTRFWIHWVRQAPGKGLEWVGEINPSNGRTNYNENFKNRFTISADTSKNTAYLQMNSLRAEDTAVYYCARGGRLDQWGQGTLVTVSS[skipping human IgG1 constant region]
chain 2: MGWSCIILFLVATATGVHSDIQMTQSPSSLSASVGDRVTITCKASQNVGSNVAWYQQKPGKAPKLLIYSASYRYSGVPSRFSGSGSGTDFTLTISSLQPEDFATYYCHQYNNYPYTFGQGTKVEIKRTVAAPSVFIFPPSDEQLKSGTASVVCLLNNFYPREAKVQWKVDNALQSGNSQESVTEQDSKDSTYSLSSTLTLSKADYEKHKVYACEVTHQGLSSPVTKSFNRGEC
In the case of B1, the IC50 with human IGF-1R-ECD [1] (biotinylated IGF-I 80 ng/mL, read-out: IC50, inhibition of IGF-I binding to IGF-1R) came to 3.4 nM; with human IGF-1R-ECD [1] (biotinylated IGF-II 80 ng/mL, read-out: IC50, inhibition of IGF-II binding to IGF-1R), 3.4 nM; with human IGF-1R-ECD [2] it was 1.1 nM.
